Data taken from the supplement of paper PMC9151546.
Single values are uncertain, as repeats are few or missing.

How the values were obtained:
CHO-K1 [1] = experiment: relative survival (nuclei to bead ratio vs DMSO control) (% of vehicle control); higher = more surviving cells
Method: (§1)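 Flow-cytometric in vitro micronucleus assay (Litron MicroFlow) in CHO-K1 cells in 96-well plates, 19 concentrations (4.5-200 µM, n=1 per concentration). Without S9, cells were exposed for 24 h and sampled at 48 h. With Aroclor 1254-induced rat liver S9, cells were exposed for 3-4 h and sampled at 27-28 h. Read-outs are %MN and %hypodiploid nuclei relative to nucleated events, and relative survival as the nuclei-to-bead ratio versus the 1% DMSO vehicle control (x100).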

CHO-K1 [2] = experiment: micronucleus frequency (% of nucleated events); higher = more micronuclei (genotoxic)
CHO-K1 [3] = experiment: hypodiploid nuclei frequency (% of nucleated events); higher = more hypodiploid events (aneugenic)
Method: as §1
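Throughout, for hypodiploid nuclei frequency (% of nucleated events): hypodiploid nuclei gated on a flow cytometer with 488 nm excitation after SYTOX Green staining, cultures at 37 °C, positive controls vinblastine without S9 and cyclophosphamide with S9.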
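Throughout, for micronucleus frequency (% of nucleated events): cells lysed with nuclei stained by SYTOX Green, then micronucleus-gated events counted against nucleated events by flow cytometry with 488 nm excitation.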
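Throughout, for relative survival (nuclei to bead ratio vs DMSO control): Lysed-cell nuclei stained with SYTOX Green and counted against counting beads by flow cytometry at 488 nm excitation, with vinblastine (no S9) and cyclophosphamide (plus S9) as positive controls.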

Oc1ccc(Cl)cc1Cl [2,4-Dichlorophenol]
Settings | hypodiploid nuclei frequency, CHO-K1 [3] [%] | micronucleus frequency, CHO-K1 [2] [%] | relative survival, CHO-K1 [1]
concentration: 4.5 (µM), S9 metabolic activation: with S9, exposure time: 3-4 hours | 0.3 | 1.36 | 110
concentration: 4.5 (µM), S9 metabolic activation: without S9, exposure time: 24 hours | 0.46 | 1.4 | 82.3
concentration: 5.63 (µM), S9 metabolic activation: with S9, exposure time: 3-4 hours | 0.14 | 1.12 | 121
concentration: 5.63 (µM), S9 metabolic activation: without S9, exposure time: 24 hours | 0.48 | 1.06 | 95.5
concentration: 7.04 (µM), S9 metabolic activation: with S9, exposure time: 3-4 hours | 0.28 | 1.26 | 132
concentration: 7.04 (µM), S9 metabolic activation: without S9, exposure time: 24 hours | 0.44 | 2.24 | 90.7
concentration: 8.8 (µM), S9 metabolic activation: with S9, exposure time: 3-4 hours | 0.36 | 0.98 | 130
concentration: 8.8 (µM), S9 metabolic activation: without S9, exposure time: 24 hours | 0.62 | 1.1 | 108
concentration: 11 (µM), S9 metabolic activation: with S9, exposure time: 3-4 hours | 0.2 | 1.04 | 120
concentration: 11 (µM), S9 metabolic activation: without S9, exposure time: 24 hours | 0.58 | 1.16 | 89.9
concentration: 13.7 (µM), S9 metabolic activation: with S9, exposure time: 3-4 hours | 0.16 | 1.1 | 111
concentration: 13.7 (µM), S9 metabolic activation: without S9, exposure time: 24 hours | 0.7 | 1.58 | 131
concentration: 17.2 (µM), S9 metabolic activation: with S9, exposure time: 3-4 hours | 0.26 | 1.3 | 92.8
concentration: 17.2 (µM), S9 metabolic activation: without S9, exposure time: 24 hours | 0.64 | 1.62 | 86.6
concentration: 21.5 (µM), S9 metabolic activation: with S9, exposure time: 3-4 hours | 0.16 | 1.46 | 97.9
concentration: 21.5 (µM), S9 metabolic activation: without S9, exposure time: 24 hours | 0.52 | 1.7 | 86.3
concentration: 26.8 (µM), S9 metabolic activation: with S9, exposure time: 3-4 hours | 0.1 | 2.34 | 79.6
concentration: 26.8 (µM), S9 metabolic activation: without S9, exposure time: 24 hours | 0.96 | 3.14 | 89.2
concentration: 33.6 (µM), S9 metabolic activation: with S9, exposure time: 3-4 hours | 0.3 | 4.28 | 61.8
concentration: 33.6 (µM), S9 metabolic activation: without S9, exposure time: 24 hours | 0.82 | 2.08 | 84.9
concentration: 41.9 (µM), S9 metabolic activation: with S9, exposure time: 3-4 hours | 0.32 | 3.3 | 58.5
concentration: 41.9 (µM), S9 metabolic activation: without S9, exposure time: 24 hours | 0.82 | 2.56 | 82.6
concentration: 52.4 (µM), S9 metabolic activation: with S9, exposure time: 3-4 hours | 0.3 | 3.01 | 57.9
concentration: 52.4 (µM), S9 metabolic activation: without S9, exposure time: 24 hours | 0.76 | 3.22 | 78.4
concentration: 65.5 (µM), S9 metabolic activation: with S9, exposure time: 3-4 hours | 0.29 | 2.68 | 58.4
concentration: 65.5 (µM), S9 metabolic activation: without S9, exposure time: 24 hours | 1.08 | 2.5 | 80.8
concentration: 81.9 (µM), S9 metabolic activation: with S9, exposure time: 3-4 hours | 0.59 | 3.38 | 50.1
concentration: 81.9 (µM), S9 metabolic activation: without S9, exposure time: 24 hours | 1.22 | 3.46 | 68.6
concentration: 102 (µM), S9 metabolic activation: with S9, exposure time: 3-4 hours | 0.3 | 2.1 | 56.5
concentration: 102 (µM), S9 metabolic activation: without S9, exposure time: 24 hours | 1.1 | 3.8 | 72.5
concentration: 128 (µM), S9 metabolic activation: with S9, exposure time: 3-4 hours | 0.25 | 2.37 | 46
concentration: 128 (µM), S9 metabolic activation: without S9, exposure time: 24 hours | 1.5 | 3.2 | 81.1
concentration: 160 (µM), S9 metabolic activation: with S9, exposure time: 3-4 hours | 0.62 | 3.03 | 58.3
concentration: 160 (µM), S9 metabolic activation: without S9, exposure time: 24 hours | 1.38 | 4.96 | 79.5
concentration: 200 (µM), S9 metabolic activation: with S9, exposure time: 3-4 hours | 0.32 | 1.69 | 48.4
concentration: 200 (µM), S9 metabolic activation: without S9, exposure time: 24 hours | 1.68 | 3.78 | 57.5

Cc1ccc(O)c(C)c1 [2,4-Dimethylphenol]
Settings | hypodiploid nuclei frequency, CHO-K1 [3] [%] | micronucleus frequency, CHO-K1 [2] [%] | relative survival, CHO-K1 [1]
concentration: 4.46 (µM), S9 metabolic activation: with S9, exposure time: 3-4 hours | 0.08 | 1.22 | 78.1
concentration: 4.46 (µM), S9 metabolic activation: without S9, exposure time: 24 hours | 0.48 | 1.82 | 93
concentration: 5.57 (µM), S9 metabolic activation: with S9, exposure time: 3-4 hours | 0.22 | 1.32 | 76.7
concentration: 5.57 (µM), S9 metabolic activation: without S9, exposure time: 24 hours | 0.48 | 1.54 | 108
concentration: 6.97 (µM), S9 metabolic activation: with S9, exposure time: 3-4 hours | 0.32 | 2.18 | 76.4
concentration: 6.97 (µM), S9 metabolic activation: without S9, exposure time: 24 hours | 0.42 | 1.5 | 95.7
concentration: 8.71 (µM), S9 metabolic activation: with S9, exposure time: 3-4 hours | 0.2 | 1.38 | 106
concentration: 8.71 (µM), S9 metabolic activation: without S9, exposure time: 24 hours | 0.44 | 1.72 | 106
concentration: 10.9 (µM), S9 metabolic activation: with S9, exposure time: 3-4 hours | 0.32 | 1.34 | 81.4
concentration: 10.9 (µM), S9 metabolic activation: without S9, exposure time: 24 hours | 0.52 | 2.2 | 86.5
concentration: 13.6 (µM), S9 metabolic activation: with S9, exposure time: 3-4 hours | 0.26 | 1.78 | 96
concentration: 13.6 (µM), S9 metabolic activation: without S9, exposure time: 24 hours | 0.52 | 2.54 | 91.6
concentration: 17 (µM), S9 metabolic activation: with S9, exposure time: 3-4 hours | 0.36 | 2.72 | 102
concentration: 17 (µM), S9 metabolic activation: without S9, exposure time: 24 hours | 0.6 | 2.28 | 78.8
concentration: 21.3 (µM), S9 metabolic activation: with S9, exposure time: 3-4 hours | 0.36 | 1.28 | 128
concentration: 21.3 (µM), S9 metabolic activation: without S9, exposure time: 24 hours | 0.38 | 1.84 | 95.7
concentration: 26.6 (µM), S9 metabolic activation: with S9, exposure time: 3-4 hours | 0.36 | 1.7 | 81.4
concentration: 26.6 (µM), S9 metabolic activation: without S9, exposure time: 24 hours | 0.5 | 1.96 | 82.6
concentration: 33.2 (µM), S9 metabolic activation: with S9, exposure time: 3-4 hours | 0.24 | 1.88 | 88.3
concentration: 33.2 (µM), S9 metabolic activation: without S9, exposure time: 24 hours | 0.5 | 1.74 | 84.1
concentration: 41.5 (µM), S9 metabolic activation: with S9, exposure time: 3-4 hours | 0.26 | 2.18 | 76.7
concentration: 41.5 (µM), S9 metabolic activation: without S9, exposure time: 24 hours | 0.76 | 1.78 | 88.2
concentration: 51.9 (µM), S9 metabolic activation: with S9, exposure time: 3-4 hours | 0.12 | 1.18 | 92.6
concentration: 51.9 (µM), S9 metabolic activation: without S9, exposure time: 24 hours | 0.68 | 1.7 | 72.7
concentration: 64.9 (µM), S9 metabolic activation: with S9, exposure time: 3-4 hours | 0.3 | 1.7 | 78.7
concentration: 64.9 (µM), S9 metabolic activation: without S9, exposure time: 24 hours | 0.78 | 2.4 | 82.6
concentration: 81.1 (µM), S9 metabolic activation: with S9, exposure time: 3-4 hours | 0.56 | 3.18 | 74
concentration: 81.1 (µM), S9 metabolic activation: without S9, exposure time: 24 hours | 0.68 | 2.8 | 65.1
concentration: 101 (µM), S9 metabolic activation: with S9, exposure time: 3-4 hours | 0.24 | 2.2 | 81.8
concentration: 101 (µM), S9 metabolic activation: without S9, exposure time: 24 hours | 0.96 | 2.86 | 64.2
concentration: 127 (µM), S9 metabolic activation: with S9, exposure time: 3-4 hours | 0.22 | 2.12 | 83.7
concentration: 127 (µM), S9 metabolic activation: without S9, exposure time: 24 hours | 1.3 | 3.36 | 56.5
concentration: 158 (µM), S9 metabolic activation: with S9, exposure time: 3-4 hours | 0.28 | 1.9 | 89.4
concentration: 158 (µM), S9 metabolic activation: without S9, exposure time: 24 hours | 1.3 | 4 | 58.8
concentration: 198 (µM), S9 metabolic activation: with S9, exposure time: 3-4 hours | 0.16 | 1.54 | 76.4
concentration: 198 (µM), S9 metabolic activation: without S9, exposure time: 24 hours | 1.7 | 4.14 | 56.8

CC(C)(C)OOC(C)(C)CCC(C)(C)OOC(C)(C)C [2,5-Dimethyl-2,5-di-(tert-butylperoxy)hexane]
Settings | hypodiploid nuclei frequency, CHO-K1 [3] [%] | micronucleus frequency, CHO-K1 [2] [%] | relative survival, CHO-K1 [1]
concentration: 4.5 (µM), S9 metabolic activation: without S9, exposure time: 24 hours | 0.18 | 1.6 | 78.1
concentration: 5.63 (µM), S9 metabolic activation: without S9, exposure time: 24 hours | 0.24 | 0.82 | 75.5
concentration: 7.04 (µM), S9 metabolic activation: without S9, exposure time: 24 hours | 0.38 | 1.24 | 108
concentration: 8.8 (µM), S9 metabolic activation: without S9, exposure time: 24 hours | 0.38 | 1.46 | 75.1
concentration: 11 (µM), S9 metabolic activation: without S9, exposure time: 24 hours | 0.38 | 1.32 | 85.5
concentration: 13.7 (µM), S9 metabolic activation: without S9, exposure time: 24 hours | 0.46 | 1.16 | 99.6
concentration: 17.2 (µM), S9 metabolic activation: without S9, exposure time: 24 hours | 0.36 | 1.24 | 115
concentration: 21.5 (µM), S9 metabolic activation: without S9, exposure time: 24 hours | 0.28 | 0.94 | 115
concentration: 26.8 (µM), S9 metabolic activation: with S9, exposure time: 3-4 hours | 0.1 | 1.26 | 143
concentration: 26.8 (µM), S9 metabolic activation: without S9, exposure time: 24 hours | 0.4 | 1.22 | 87.1
concentration: 33.6 (µM), S9 metabolic activation: with S9, exposure time: 3-4 hours | 0.28 | 1.06 | 128
concentration: 33.6 (µM), S9 metabolic activation: without S9, exposure time: 24 hours | 0.46 | 1.3 | 106
concentration: 41.9 (µM), S9 metabolic activation: with S9, exposure time: 3-4 hours | 0.16 | 1.08 | 118
concentration: 41.9 (µM), S9 metabolic activation: without S9, exposure time: 24 hours | 0.42 | 1.1 | 100
concentration: 52.4 (µM), S9 metabolic activation: with S9, exposure time: 3-4 hours | 0.24 | 1.34 | 106
concentration: 52.4 (µM), S9 metabolic activation: without S9, exposure time: 24 hours | 0.46 | 1.26 | 87.4
concentration: 65.5 (µM), S9 metabolic activation: with S9, exposure time: 3-4 hours | 0.22 | 1.18 | 116
concentration: 65.5 (µM), S9 metabolic activation: without S9, exposure time: 24 hours | 0.42 | 1.32 | 98.5
concentration: 81.9 (µM), S9 metabolic activation: with S9, exposure time: 3-4 hours | 0.16 | 1.26 | 91.5
concentration: 81.9 (µM), S9 metabolic activation: without S9, exposure time: 24 hours | 0.68 | 1.74 | 108
concentration: 102 (µM), S9 metabolic activation: with S9, exposure time: 3-4 hours | 0.28 | 1.16 | 113
concentration: 102 (µM), S9 metabolic activation: without S9, exposure time: 24 hours | 0.76 | 1.6 | 97.5
concentration: 128 (µM), S9 metabolic activation: with S9, exposure time: 3-4 hours | 0.18 | 1.12 | 112
concentration: 128 (µM), S9 metabolic activation: without S9, exposure time: 24 hours | 0.9 | 1.74 | 110
concentration: 160 (µM), S9 metabolic activation: with S9, exposure time: 3-4 hours | 0.18 | 1.34 | 114
concentration: 160 (µM), S9 metabolic activation: without S9, exposure time: 24 hours | 0.86 | 1.62 | 97.5
concentration: 200 (µM), S9 metabolic activation: with S9, exposure time: 3-4 hours | 0.3 | 1.52 | 106
concentration: 200 (µM), S9 metabolic activation: without S9, exposure time: 24 hours | 0.8 | 1.6 | 50.4
